PubChem BioAssay AID1347165 (National Center for Advancing Translational Sciences (NCATS), 2019)
In all, about 220,000 compounds went through this assay and about 5,700 (2.6%) were called active. Inconclusive means that the source gave no clear call. Such entries were picked first, then a sample of the others. The call rests on the fitted dose curve; in most records, active means well fitted inhibition curve with a large enough effect; inconclusive means small, poorly fitted or top-dose-only effect; inactive means no such curve, though single readings can be large or run the other way. Where the call is inconclusive, the potency comes from a doubtful curve fit.

What follows are compounds tested against Lysine-specific demethylase 5B (Homo sapiens) (UniProt Q9UGL1) (assay: Primary screen for KDM5B Histone Demethylases FDH-coupled qHTS). Details: FDH-coupled NADH fluorescence (FDH is formaldehyde dehydrogenase); activity change, negative = inhibition: at 57.7 µM (top of the series) unless noted.
In short: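 Measured: NADH fluorescence change, 30 min, RT. System: KDM5BΔAP 200 nM final, H3K4me3 peptide, α-KG, Fe(II), ascorbate, NAD⁺ plus FDH, pH 7.5 HEPES. Compounds: titrated, 10 min pre-incubation with enzyme.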
Further: nearly all actives have a fitted effect of over 70% in size.
Potency means the concentration at half of the fitted maximal effect; tags describe the fitted curve by direction and shape.
Wherever activity change, negative = inhibition is given: 0% is about no effect.

UniProt Q9UGL1, sequence (Q9UGL1 whole entry, looked up): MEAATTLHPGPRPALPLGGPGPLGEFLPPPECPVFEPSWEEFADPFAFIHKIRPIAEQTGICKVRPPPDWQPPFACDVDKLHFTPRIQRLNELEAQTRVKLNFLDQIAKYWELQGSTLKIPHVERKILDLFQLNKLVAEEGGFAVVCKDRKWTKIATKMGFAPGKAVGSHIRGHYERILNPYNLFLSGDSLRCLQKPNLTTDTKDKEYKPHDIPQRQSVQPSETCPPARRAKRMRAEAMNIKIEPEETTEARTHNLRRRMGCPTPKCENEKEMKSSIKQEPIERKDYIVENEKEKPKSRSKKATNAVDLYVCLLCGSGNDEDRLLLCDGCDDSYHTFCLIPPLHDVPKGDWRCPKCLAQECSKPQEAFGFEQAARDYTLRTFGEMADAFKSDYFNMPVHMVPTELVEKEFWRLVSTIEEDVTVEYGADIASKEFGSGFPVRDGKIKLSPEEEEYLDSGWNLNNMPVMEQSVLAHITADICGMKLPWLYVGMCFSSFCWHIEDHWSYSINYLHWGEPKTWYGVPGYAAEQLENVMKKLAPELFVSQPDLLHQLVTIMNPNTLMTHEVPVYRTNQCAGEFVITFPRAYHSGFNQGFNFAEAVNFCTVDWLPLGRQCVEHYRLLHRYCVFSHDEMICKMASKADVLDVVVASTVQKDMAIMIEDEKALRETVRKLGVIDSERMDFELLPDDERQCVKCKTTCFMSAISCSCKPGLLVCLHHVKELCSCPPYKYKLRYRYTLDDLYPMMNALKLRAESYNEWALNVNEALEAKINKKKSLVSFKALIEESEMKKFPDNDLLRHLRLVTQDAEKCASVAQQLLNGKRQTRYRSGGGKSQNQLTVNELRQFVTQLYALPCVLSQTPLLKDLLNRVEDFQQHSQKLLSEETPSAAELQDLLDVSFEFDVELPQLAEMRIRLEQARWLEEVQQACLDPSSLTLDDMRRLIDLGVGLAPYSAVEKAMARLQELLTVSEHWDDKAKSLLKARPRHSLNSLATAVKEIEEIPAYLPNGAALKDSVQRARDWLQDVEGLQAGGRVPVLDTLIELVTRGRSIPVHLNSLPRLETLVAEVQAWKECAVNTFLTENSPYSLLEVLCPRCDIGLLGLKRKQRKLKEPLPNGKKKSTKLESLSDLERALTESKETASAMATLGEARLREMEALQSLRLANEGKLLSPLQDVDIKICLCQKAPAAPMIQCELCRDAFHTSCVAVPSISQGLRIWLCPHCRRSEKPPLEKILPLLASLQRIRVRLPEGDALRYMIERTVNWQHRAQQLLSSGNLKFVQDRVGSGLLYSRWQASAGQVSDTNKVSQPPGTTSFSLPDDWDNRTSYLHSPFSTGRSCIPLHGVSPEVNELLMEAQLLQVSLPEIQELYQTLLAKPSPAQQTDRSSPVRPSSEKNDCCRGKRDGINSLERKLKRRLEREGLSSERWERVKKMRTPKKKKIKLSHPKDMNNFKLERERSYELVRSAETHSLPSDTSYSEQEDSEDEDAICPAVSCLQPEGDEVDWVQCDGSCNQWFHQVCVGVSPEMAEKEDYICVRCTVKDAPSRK

Question: How did the “activity change, negative = inhibition” value turn out when O=C(c1ccccc1)N1CCC2(Cc3ccccc3NC2=O)C1 (stereo not drawn) was run?
Answer: inactive: 19.6% [at 86.2 µM]

Question: CN1CCN(C(=O)c2ccc3c(c2)NC(C)(CCCCc2ccccc2)CO3)CC1=O (stereo not drawn) was tested. Which Potency did it give?
Answer: inconclusive: 35.5 µM [inhibitor, partial curve]

Question: For COc1ccc2cc(/C=C(\NC(=O)c3ccccc3)C(=O)N(C)C)c(Cl)nc2c1, which “activity change, negative = inhibition” value is on record?
Answer: inactive: -22.4%

Question: For COC(=O)[C@@H]1Cc2c([nH]c3ccccc23)[C@H]2C[C@@H](N3CCOCC3)C[C@@H](c3ccccc3)N21, which Potency is on record?
Answer: inconclusive: 28.2 µM [inhibitor, partial curve, poor fit]

Question: CN(c1cc(=O)c2ccnc(-c3ccc(F)c(Cl)c3)c2o1)C1CCOCC1 was tested. Which Potency did it give?
Answer: active: 35.5 µM

Question: For CC(C)CN(Cc1cccnc1)C1CN(C(=O)Nc2ccccc2F)C1, which “activity change, negative = inhibition” value is on record?
Answer: inactive: 14.8%

Question: Which “activity change, negative = inhibition” value does the source give for CN(Cc1cccnc1)Cc1nc(C2(O)CCN(Cc3ccccc3)CC2)cs1 here?
Answer: inactive: -21.4% [at 86.2 µM]

Question: Which “activity change, negative = inhibition” value does the source give for COc1ccc(C2C(C#N)=C(N)N(c3c(F)cccc3F)C3=C2C(=O)CCC3)cc1OC (stereo not drawn) here?
Answer: inactive: 0.0779%

Question: Which “activity change, negative = inhibition” value does the source give for COC(=O)c1ccc(NC(=O)Nc2ccc3c(c2)N(C(=O)c2ccc(C)cc2)CC3)cc1 here?
Answer: inactive: -10.6%

Question: For Cc1cc(C)cc(NC(=O)C(Sc2ccc(S(=O)(=O)N3CCOCC3)cn2)c2ccccc2)c1 (stereo not drawn), which “activity change, negative = inhibition” value is on record?
Answer: inactive: -16.9%

Question: For COc1ccc(NC(=O)NC[C@H]2O[C@@H](CO)[C@@H](O)C2N2CCN(c3ccccc3)CC2)cc1 (stereo partly drawn), which Potency is on record?
Answer: inconclusive: 28.2 µM [inhibitor, single point]

Question: How did the Potency turn out when CN1CCc2c(c(N3CCOCC3)nc3sc(C(=O)N4CCOCC4)c(N)c23)C1 was run?
Answer: inconclusive: 28.2 µM [inhibitor, partial curve, poor fit]

Question: With COC(=O)c1cccc(NC(=O)C2CC(=O)Nc3cc(F)ccc32)c1 (stereo not drawn) as the compound, how does the “activity change, negative = inhibition” value read?
Answer: inactive: 14.2%

Question: Which Potency does the source give for O=C(N[C@H]1CCN2C(=O)c3cc(-c4cccc(C(F)(F)F)c4)ccc3NC(=O)[C@H]12)C1CCCC1 here?
Answer: inconclusive: 25.1 µM [inhibitor, single point]

Question: How did the Potency turn out when Cc1ccc(-n2c(SCC(N)=O)nc3c(c2=O)C2(CCCC2)Cc2ccccc2-3)cc1 was run?
Answer: inconclusive: 39.8 µM [inhibitor, single point]

Question: How did the “activity change, negative = inhibition” value turn out when CN(CC(=O)Nc1cccc2ccccc12)C(=O)c1ccc(NS(=O)(=O)c2ccc(F)cc2)cc1 was run?
Answer: inactive: -30.6%

Question: Which “activity change, negative = inhibition” value does the source give for CNC(=O)NC(=O)C(C)N(C)Cc1ccccc1 (stereo not drawn) here?
Answer: inactive: 10.9%

Question: Which Potency does the source give for CC(=O)Nc1cc(F)c(F)cc1NC(=O)c1cc2ccccc2oc1=O here?
Answer: inconclusive: 39.8 µM [inhibitor, single point]

Question: With CCN1c2cc(C(=O)NCc3ccc(F)cc3Cl)ccc2C(=O)N2CCCCCC21 (stereo not drawn) as the compound, how does the Potency read?
Answer: inconclusive: 31.6 µM [inhibitor, partial curve, poor fit]

Question: How did the Potency turn out when Cc1ccc(-c2cn(-c3ccc(Cl)cc3)c(S(=O)(=O)CC(=O)Nc3ccccc3)n2)cc1 was run?
Answer: inconclusive: 17.8 µM [inhibitor, partial curve, poor fit]

Question: Which Potency does the source give for CCOc1cc(Br)c2cc(C(=O)O)[nH]c2c1OC here?
Answer: inconclusive: 22.4 µM [inhibitor, partial curve, poor fit]

Question: With O=S(=O)(NCc1ccnc(N2CCOCC2)c1)c1ccc(Cl)cc1C(F)(F)F as the compound, how does the Potency read?
Answer: inconclusive: 39.8 µM [inhibitor, single point]

Question: Which “activity change, negative = inhibition” value does the source give for O=C1COCC2(CN1Cc1c(F)cccc1Cl)CN(c1ccccc1)C2 here?
Answer: inactive: -26.2% [at 86.2 µM]

Question: With Cc1cccc(C)c1Nc1c(-c2ccc(O)cc2)nc2sccn12 as the compound, how does the Potency read?
Answer: inconclusive: 2.51 µM [inhibitor, partial curve, poor fit]

Question: CC(C)c1ccc(/C=N/NC(=O)c2ccccc2)cc1 was tested. Which “activity change, negative = inhibition” value did it give?
Answer: inactive: -3.72%

Question: With Cc1cc(C)cc(-n2ccn(Cc3ccc(F)cc3)c(=O)c2=O)c1 as the compound, how does the activity change, negative = inhibition read?
Answer: inconclusive: -31.2% [inhibitor]

Question: For COc1ccc(-n2cnc3c2NC(=O)CC3c2cc(OC)c3c(c2OC)OCO3)cc1 (stereo not drawn), which Potency is on record?
Answer: inconclusive: 25.1 µM [inhibitor, partial curve, poor fit]

Question: How did the Potency turn out when COC(=O)c1c(NC(C)=O)c2cc(NC(C)CCO)cnc2n1CC1CCCO1 (stereo not drawn) was run?
Answer: inconclusive: 17.8 µM [inhibitor, partial curve, poor fit]

Question: Which Potency does the source give for COc1ccc(Nc2oc(/C=C/c3ccc(OC)c(OC)c3)nc2C#N)cc1 here?
Answer: inconclusive: 25.1 µM [inhibitor, partial curve, poor fit]

Question: Which Potency does the source give for COCCn1c(=O)[nH]c2cc(C(=O)Nc3cccc(C(C)=O)c3)ccc2c1=O here?
Answer: inconclusive: 0.794 µM [inhibitor, full curve, poor fit]

Question: How did the “activity change, negative = inhibition” value turn out when CCC(C)NC(=O)CSc1cc(C)c2ccccc2n1 (stereo not drawn) was run?
Answer: inactive: 14.7%

Question: With CN1CCN(c2ccc(-c3cn(C)c(=O)n4cc(COc5ccnn5C)nc34)cn2)CC1 as the compound, how does the Potency read?
Answer: active: 39.8 µM

Question: Which Potency does the source give for COCCNC[C@@H]1C=C(C)[C@H](Cc2nnc(-c3ccc(N(C)C)cc3)o2)C[C@H]1C(C)C here?
Answer: active: 28.2 µM

Question: Which Potency does the source give for CCOc1ccc(S(=O)(=O)Nc2cc(Cl)ccc2OC)c2cccnc12 here?
Answer: inconclusive: 1.58 µM [inhibitor, partial curve, poor fit]

Question: Which “activity change, negative = inhibition” value does the source give for CC(SC(C)c1ccccc1Cl)C(=O)NC(N)=O (stereo not drawn) here?
Answer: inactive: -0.958%

Question: How did the “activity change, negative = inhibition” value turn out when CC(C)(C)c1oc(C(N)=O)cc1CN1CCCC(CO)(CC2CC2)C1 (stereo not drawn) was run?
Answer: inactive: -8.53%

Question: c1ccc2sc(C3CCCN(Cc4cc5n(n4)CCNC5)C3)nc2c1 (stereo not drawn) was tested. Which Potency did it give?
Answer: inconclusive: 31.6 µM [inhibitor, single point]

Question: With CCn1nccc1C(=O)N1CC[C@H]2C(=O)NCCCCCCN(Cc3ccncc3)[C@@H]2C1 as the compound, how does the Potency read?
Answer: inconclusive: 17.8 µM [inhibitor, partial curve, poor fit]

Question: With Cc1cccc(N2CC(C(=O)N(C)Cc3cnn(C)c3)CC2=O)c1C (stereo not drawn) as the compound, how does the Potency read?
Answer: inconclusive: 28.2 µM [inhibitor, single point]

Question: For CCCn1c2ccccc2c2cnn(CC(=O)NCCc3ccc(C)cc3)c(=O)c21, which Potency is on record?
Answer: inconclusive: 1.41 µM [inhibitor, full curve, poor fit]

Question: For CCCCOC(=O)c1ccc(Nc2nnc(-n3nc(C)cc3C)c3ccccc23)cc1, which Potency is on record?
Answer: inconclusive: 28.2 µM [inhibitor, partial curve, poor fit]

Question: With COc1ccc(-c2noc(CSc3nc(N)cc(=O)[nH]3)n2)cc1OC as the compound, how does the Potency read?
Answer: inconclusive: 0.891 µM [inhibitor, full curve, poor fit]

Question: With O=C1CCN(Cc2ccncc2)CCCC(c2nc(-c3cccnc3)no2)CCN1 (stereo not drawn) as the compound, how does the Potency read?
Answer: inconclusive: 22.4 µM [inhibitor, partial curve]
